Results as given in PubChem BioAssay AID1963576 (National Center for Advancing Translational Sciences (NCATS), 2024).
About 60 (0.1%) of roughly 46,000 compounds were called active. Inconclusive results (about 3%) are left out. Calls come from the whole dose curve; as a rule, active = well fitted inhibition curve with a large enough effect; inconclusive = small, poorly fitted or top-dose-only effect; inactive = no such curve, though single readings can be large or run the other way. The list shows a part of the results.

test: Primary qHTS assay for Inhibitors of ovarian cancer metastasis using an organotypic tumor microenvironment (TME) model.; note: nearly all actives have a fitted effect of over 65% in size;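 for activity change, negative = inhibition: plate controls were DMSO wells for no effect and tomatine positive control wells for full effect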; conditions: SKOV3ip1-GFP adhesion/invasion on 3D omental model, fluorescence; series mostly up to 45.8 µM; activity change, negative = inhibition: at the top concentration
Procedure, shortened: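 Primary human omental fibroblast/mesothelial 3D culture pre-formed 48 h. SKOV3ip1-GFP cells added with compounds (0.36-46 umol/L), incubated 2 h RT/16 h 37 C, fixed; GFP cells quantified at 488/509 nm.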

Activity change, negative = inhibition, inactive:
COc1cccc(C(=O)N2c3ccc(C)cc3C(C)(c3ccccc3)CC2(C)C)c1 (centres undefined) 6.98%
O=C(CCN1C(=O)c2ccccc2Sc2ncccc21)Nc1ccc(F)cc1F -3.21%
COc1ccc(C(=O)Nc2nc3n(n2)C(c2ccccc2)C=C(c2ccccc2)N3)cc1 (centres undefined) 1.31%
COC(=O)c1ccc2c(c1)N(CC(=O)Nc1ccc(OC)c(Cl)c1)C(=O)c1ccccc1S2 19.7%
Cc1ccc(-n2nc3c(N4CCCC(C(=O)NCc5ccc(Cl)cc5)C4)nnc(C)c3c2C)cc1 (centres undefined) 10.6%
CCc1ccc(-c2cn3c(n2)sc2cc(C(=O)NCCC4=CCCCC4)ccc23)cc1 -17.9%
Cc1ccc(-c2nn3c(=O)cc(CN4CCN(C(=O)/C=C/c5ccccc5)CC4)nc3s2)cc1 -4.98%
CCOC(=O)c1ccc(NC(=O)C(Cc2ccccc2)N2Cc3ccccc3C2=O)cc1 (centres undefined) -3.08%
CCn1c(=O)c2sccc2n2c(CCCC(=O)N3CCN(c4cccc(Cl)c4)CC3)nnc12 -3.15%
CCOc1ccccc1C(=O)N(Cc1cc(OC)c(OC)c(OC)c1)c1ccccn1 0.527%
CCCn1c(SCc2nc(-c3ccccc3OCC)no2)nnc1-c1ccc(Cl)cc1 -3.18%
N#Cc1nc(COc2cccc(Cl)c2)oc1NCCc1ccccc1 4.94%
CC(C)c1ccc(NC(=O)CSc2nc(=O)n(Cc3ccccn3)c3c2CCC3)cc1 7.68%
Cc1ccc(NC(=O)Cn2c(=O)n(Cc3nc(C)no3)c(=O)c3cc4c(cc32)OCO4)c(C)c1 10.6%
COc1ccc(S(=O)(=O)Nc2ccc(-c3ccc(N4CCCC4)nn3)cc2)cc1F 2.32%
Cc1ccc(CCNC(=O)c2ccc3c(c2)nc2n3CCCCC2)cc1 4.3%
CCOc1ccc(OCC(=O)NCCS(=O)(=O)N2CCN(c3ccccc3F)CC2)cc1 -12.3%
COC(=O)CNC(=O)C1CCN(S(=O)(=O)c2cccc3nsnc23)CC1 15.3%
CC(=O)c1ccc(N2CCN(C(=O)CCC(=O)Nc3ccc4nc(N5CCCCC5)cc(C)c4c3)CC2)cc1 26.5%
CCN(CC)c1ccc2cc(-c3nc(-c4cccs4)no3)c(=O)oc2c1 5.42%
Cc1ccccc1Cc1c(C)nc2nc(SCC(=O)N(C)c3ccccc3)nn2c1C -5.18%
CN(c1ccc(F)cc1)S(=O)(=O)N1CCCC(C(=O)NCc2cccc(Br)c2)C1 (centres undefined) 2.88%
Cc1ccc(-n2c(=O)c3c(cnn3C)n(CC(=O)Nc3ccc(C)cc3C)c2=O)cc1 3.94%
CC1=C(C(=O)Nc2ccc(C)cc2C)C(c2ccc([N+](=O)[O-])cc2)n2ncc(C(=O)Nc3ccc(F)cc3)c2N1 (centres undefined) 2.96%
COc1cc2c(Nc3ccc(Br)cc3F)ncnc2cc1OCC1CCN(C)CC1 -10.3%
COc1ccccc1CNC(=O)c1c(O)nc2c(C)cccn2c1=O -9.03%
CN(C)CCNC(=O)c1ccc2c(c1)NC(=O)C(CS(=O)(=O)Cc1cccc(Br)c1)N2 (centres undefined) -0.0491%
Cc1ccc(S(=O)(=O)N2CCCc3cc(NS(=O)(=O)c4cccc(Cl)c4)ccc32)cc1 -3.18%
COc1ccccc1NC(=O)CSc1nnc(NC(=O)Nc2ccc(C)cc2)s1 -24.1%
COc1ccccc1NC(=O)CCC(=O)N1CC(C)Oc2ccc(C)cc21 (centres undefined) 1.79%
CC(=O)c1ccc(NC(=O)CSc2nnc3ccc(-c4ccc(Br)cc4)nn23)cc1 6.74%
COc1ccc2c(c1)cc1c(=O)n(CC(=O)NC(C)C)nc(C)n12 -4.37%
CCc1ccc(NC(=O)C2CCCN2S(=O)(=O)c2ccc3c(c2)n(C)c(=O)c(=O)n3C)cc1 (centres undefined) 8.53%
Cc1ccc2nc(Cl)c3cc(C(=O)NC4CCCCC4)sc3c2c1 14.7%
COc1ccc(C(=O)Nc2nc3nc(C)c(Cl)c(=O)n3[nH]2)cc1 -1.89%
Cc1oc(-c2ccccc2Cl)nc1CS(=O)(=O)CC(=O)NC(C)CCc1ccccc1 (centres undefined) 7.69%
CCOC(=O)c1cc(S(=O)(=O)N2CCN(c3cc(Cl)ccc3C)CC2)[nH]n1 -0.276%
Cc1ccc(-c2cnc(NCc3c(F)cccc3Cl)n2C)cc1 -3.18%
CN1CCc2nc3sc(C(=O)Nc4c(F)cccc4F)c(N)c3cc2C1 -6.51%
CCOC(=O)c1ccc(NC(=O)c2nsc3ccccc23)cc1 -6.88%
CCCN(C(=O)Cn1cnc2sc(C)c(S(=O)(=O)N3CCN(c4ncccn4)CC3)c2c1=O)c1cccc(C)c1 55.8%
Cc1ccccc1NC(=O)CCc1c(C)nc2c(c1C)c(=O)n(C)c(=O)n2C 23.2%
Cc1nc(-c2cccc(S(=O)(=O)N3CCC(C(=O)NCc4ccccc4)CC3)c2)no1 17.4%
CCc1ccc(OCC(=O)Nc2c(C(=O)c3ccccc3)oc3ccccc23)cc1 3.86%
COc1ccc(OC)c(S(=O)(=O)Nc2ccc3[nH]c(=O)[nH]c3c2)c1 4.68%

outcome, inactive:
COc1ccc(C2NC(=O)NC(C)=C2C(=O)Nc2ccccc2)cc1OC (centres undefined)
CCOC(=O)c1ccc(NC(=O)CSc2cn(CC(=O)N3CCCC3)c3ccccc23)cc1
CCCOc1ccc(C(=O)Nc2ccc3oc(-c4cccc(Cl)c4Cl)nc3c2)cc1
Cc1sc2ncn(CC(=O)Nc3cccc(C(F)(F)F)c3)c(=O)c2c1S(=O)(=O)N1CCN(C)CC1
Cc1ccc(C(=O)c2c(N)c(C(=O)Nc3ccccc3Cl)c3ccccn23)cc1
Cc1c(C(=O)N2CCC(C)CC2)c(S(=O)(=O)NCc2ccc(Cl)cc2)c(C)n1C
COc1ccc(S(=O)(=O)NCCc2csc3nc(-c4cccc(C)c4)nn23)cc1F
CC1CCN(S(=O)(=O)c2ccc3c(c2)c(=O)c(C(=O)NCCc2ccccc2)cn3C)CC1
COc1ccccc1CNC(=O)CN(C)c1nn2c(=O)cc(C)nc2s1
COc1ccc(NC(=O)CC2C(=O)N(c3cccc(OC)c3)C(=O)N2Cc2cccnc2)cc1 (centres undefined)
COc1ccc(OC)c(NC(=O)C(NS(=O)(=O)c2ccc3c(c2)CCCC(=O)N3)C(C)C)c1 (centres undefined)
Cc1cc(=O)n2nc(N3CCC(C(=O)NCc4ccccc4Cl)CC3)sc2n1
Cc1cccc(CN2C(=O)c3ccccc3S(=O)(=O)c3ccc(C(=O)N4CCCC4)cc32)c1
COc1ccc(NS(=O)(=O)c2ccc3c(c2)oc(=O)n3C)cc1Cl
